Data on 31 molecules can be found in PubChem BioAssay (NCATS).

This is one part of the list. Further columns of the screen follow, without active or inactive calls. The list favours compounds with an active or inconclusive main result. Words in brackets tell the shape of the fitted curve; partial curves, single points and poor fits give uncertain potencies.
Tags tell the direction and shape of the fitted curve.

This assay in a line: qHTS Assay for Lipid Storage Modulators (AID 1519). The conditions noted are these: Drosophila S3 cells, BODIPY lipid droplet/cell ratio, laser cytometry; measured here: cell number channel AC50; cells loaded with oleic acid. An outline of the steps: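 Cells seeded at 5,000 per well were treated with compounds over a concentration series and loaded with oleic acid (400 uM, as added). Lipid droplet fluorescence (488 nm excitation, 500-530 nm channel) was read by laser-scanning cytometry and normalized to 20 uM Triacsin C.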
(Quantitative high-throughput screening tests each substance at several concentrations.)
One may read the AC50 as the concentration giving half of the maximal activity seen. `COCCn1c(=O)c(-c2cccc(Cl)c2)nc2cncnc21`: the AC50 was 3.98 µM [rising, full curve, poor fit].

Regarding `CCNc1ncc2nc(-c3cc(F)cc(F)c3)c(=O)n(CCC#N)c2n1`, the AC50 was 8.91 µM [rising, partial curve, poor fit].

For `Nc1ncnc2c1nc(Sc1ccc(Cl)cc1)n2[C@H]1O[C@@H]2COP(=O)(O)O[C@H]2[C@@H]1O`, the half-maximal activity concentration (AC50) was 12.6 µM [falling, partial curve, poor fit].

With `O=C(c1ccco1)N1CCC2(CC1)CN(c1ncccn1)C2`, the AC50 is 3.16 µM [rising, partial curve, poor fit].

As for `c1ccc2sc(N3CCN(Cc4ccc5c(c4)OCO5)CC3)nc2c1`, the AC50 is 12.6 µM [rising, full curve].

On to `O=c1c(CCc2ccccc2)nc2cnc(N3CCNCC3)nc2n1Cc1cccs1`, for which the AC50 is 5.62 µM [rising, partial curve].

For the molecule `COc1ccc(CNc2ccnc(-c3ccccc3Cl)n2)c(OC)c1`, the AC50 is 3.16 µM [rising, partial curve, poor fit].

Consider `O=c1c(-c2ccc(F)cc2)nc2cncnc2n1Cc1ccc(F)cc1`, for which the concentration at half-maximal activity (AC50) is 0.251 µM [rising, full curve, poor fit].

`CC(=O)Nc1ccc(-c2nc3ccc(Cl)cc3[nH]2)cc1`: the AC50 is 0.891 µM [rising, full curve].

Take `CN(C)C(=O)c1ccc(-c2ccc3ncnc(NC4CC4)c3c2)cc1`: the concentration at half-maximal activity (AC50) was 0.0891 µM [rising, full curve].

For the molecule `Cn1c(=O)c(-c2ccc(F)cc2)nc2cncnc21`, the AC50 was 0.0398 µM [rising, full curve, poor fit].

`CN(C)c1ncc2nc(-c3ccc(F)cc3)c(=O)n(CCC#N)c2n1`: the concentration at half-maximal activity (AC50) was 0.178 µM [rising, partial curve].

Take `N#Cc1ccc(CN2CC3(CCN(C(=O)c4csnn4)CC3)C2)cc1`: the AC50 is 20 µM [rising, partial curve].

With `CC(C)=CCc1c2c(c3occ(-c4ccc(O)cc4)c(=O)c3c1O)C=CC(C)(C)O2`, the AC50 was 31.6 µM [falling, single point].

With `O=C(O)C1CCCNC1` (stereo unspecified), the AC50 was 39.8 µM [rising, single point].

As for `CCOC(=O)C1=C(O)C(=O)N(Cc2ccccc2)C1`, the AC50 is 14.1 µM [rising, partial curve, poor fit].

As to `c1cncc(-c2nc(N3CCNCC3)c3ccccc3n2)c1`, the AC50 was 1.58 µM [rising, full curve, poor fit].

Take `O=C(O)c1cc(=O)c2c(Cl)cc(Cl)cc2[nH]1`: the concentration at half-maximal activity (AC50) is 15.8 µM [rising, single point].

Regarding `COc1ccccc1CNc1nc(-c2ccc(N(C)C)cc2)nc2ccccc12`, the AC50 is 39.8 µM [falling, single point].

For `CCNc1ncc2nc(-c3cccc(C#N)c3)c(=O)n(CCC#N)c2n1`, the AC50 was 39.8 µM [rising, single point].

As to `Cc1cccc(/C=C\c2ccccc2)n1`, the AC50 is 12.6 µM [rising, partial curve].

Turning to `CC(=O)NCCc1ccc(O)c(O)c1`, the half-maximal activity concentration (AC50) was 0.0141 µM [falling, full curve, poor fit].

In the case of `CN(C)c1ccc(-c2nc(-n3ccnc3)c3ccccc3n2)cc1`, the half-maximal activity concentration (AC50) was 0.0251 µM [rising, full curve].

For the molecule `O=C(c1ccc2c(c1)OCO2)N1CCCCC1`, the AC50 is 14.1 µM [rising, partial curve, poor fit].

Turning to `COc1cccc(-c2nc(NCCN3CCOCC3)c3ccccc3n2)c1`, the AC50 is 3.98 µM [rising, full curve, poor fit].

On to `Clc1cccc(Nc2nnc(-c3ccccc3)c3ccccc23)c1`, for which the AC50 was 0.891 µM [rising, full curve].

As for `O=C(c1csnn1)N1CCC2(CCCN(c3ccccn3)C2)CC1`, the AC50 is 0.282 µM [rising, full curve, poor fit].

Regarding `CN(C)c1ccc(-c2cncnc2N(C)Cc2ccco2)cc1`, the AC50 is 1 µM [rising, partial curve].

On to `Cc1onc(-c2c(Cl)cccc2Cl)c1C(=O)NC1C(=O)N2C1SC(C)(C)C2C(=O)O` (stereo unspecified), for which the half-maximal activity concentration (AC50) was 20 µM [rising, partial curve].

`CCNc1ncc2nc(CCc3ccccc3)c(=O)n(Cc3cccc(OC)c3)c2n1`: the AC50 was 0.708 µM [rising, partial curve].

On to `c1cncc(-c2cc(-n3ccnc3)ncn2)c1`, for which the AC50 is 1.78 µM [rising, full curve].
